The structures appear in SMILES notation. Out of some 310,000 compounds screened, about 14,000 (4.5%) showed an effect of 50% or more. Effects have a minus sign here. Some of the results follow.
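Further: peak tail current of the secondary pulse compared with the same well before compound.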

The target in this assay is human ether-à-go-go-related gene (hERG) potassium channel (human, UniProt Q12809). Briefly: primary screen, population patch clamp on CHO cells stably expressing hERG.
human ether-à-go-go-related gene (hERG) potassium channel, sequence (Q12809 whole entry, looked up): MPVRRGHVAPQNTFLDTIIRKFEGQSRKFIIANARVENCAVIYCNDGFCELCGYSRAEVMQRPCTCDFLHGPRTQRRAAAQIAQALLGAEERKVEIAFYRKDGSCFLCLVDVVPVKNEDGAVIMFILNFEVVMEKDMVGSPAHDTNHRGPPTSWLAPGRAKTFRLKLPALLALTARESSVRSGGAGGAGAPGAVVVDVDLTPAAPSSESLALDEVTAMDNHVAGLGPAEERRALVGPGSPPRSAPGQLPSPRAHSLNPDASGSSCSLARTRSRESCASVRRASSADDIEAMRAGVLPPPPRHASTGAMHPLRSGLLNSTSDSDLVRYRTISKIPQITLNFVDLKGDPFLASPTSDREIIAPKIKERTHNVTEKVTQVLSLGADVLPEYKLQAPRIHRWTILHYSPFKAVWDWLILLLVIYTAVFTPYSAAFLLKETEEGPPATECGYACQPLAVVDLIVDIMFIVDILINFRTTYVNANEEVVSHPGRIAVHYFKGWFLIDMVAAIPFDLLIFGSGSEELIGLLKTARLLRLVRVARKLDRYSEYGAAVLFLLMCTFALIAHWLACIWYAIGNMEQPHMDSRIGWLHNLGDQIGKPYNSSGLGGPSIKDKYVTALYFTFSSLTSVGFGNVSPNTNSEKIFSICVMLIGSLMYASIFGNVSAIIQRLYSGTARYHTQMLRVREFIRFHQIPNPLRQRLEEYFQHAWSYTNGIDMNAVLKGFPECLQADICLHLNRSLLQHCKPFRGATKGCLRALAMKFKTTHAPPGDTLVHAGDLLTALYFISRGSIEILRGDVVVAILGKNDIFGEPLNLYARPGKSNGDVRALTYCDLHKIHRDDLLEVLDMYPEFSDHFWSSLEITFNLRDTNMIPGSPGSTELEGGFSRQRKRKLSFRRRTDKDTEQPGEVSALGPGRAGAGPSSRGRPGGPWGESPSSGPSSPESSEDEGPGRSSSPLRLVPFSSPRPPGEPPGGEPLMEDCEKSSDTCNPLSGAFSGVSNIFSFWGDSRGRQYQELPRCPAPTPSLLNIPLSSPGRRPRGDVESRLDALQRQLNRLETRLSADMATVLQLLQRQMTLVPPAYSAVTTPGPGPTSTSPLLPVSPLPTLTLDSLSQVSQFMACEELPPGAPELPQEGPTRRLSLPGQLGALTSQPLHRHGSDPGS
Regarding `COc1ccccc1-n1cc(-c2ccc([N+](=O)[O-])cc2)[nH]c1=S`, the “hERG current change (%, negative = inhibition) at 10uM” value was found to be 1.29%.

Take `CCN(CC)c1ncnc2sc(C(=O)N3CCN(c4ccccc4)CC3)c(C)c12`: the “hERG current change (%, negative = inhibition) at 10uM” value is -50.2%.

On to `COc1cccc(N(CC(=O)NCCSCc2ccco2)S(=O)(=O)c2ccccc2)c1`, for which the “hERG current change (%, negative = inhibition) at 10uM” value is given as -46.3%.

As for `COc1cc(C2NC(=O)NC(C)=C2C(=O)OCC2CCCO2)cc(OC)c1OC` (stereo not drawn), the “hERG current change (%, negative = inhibition) at 10uM” value is reported as 18.8%.

Turning to `CCN(CC)P(=O)(/C=C(\Cl)c1ccccc1)/C=C(\Cl)c1ccccc1`, the “hERG current change (%, negative = inhibition) at 10uM” value is recorded as -6.79%.

As to `COc1ccc(CCN2CC(C(=O)NCc3ccco3)CC2=O)cc1OC` (stereo not drawn), the “hERG current change (%, negative = inhibition) at 10uM” value is given as -3.98%.

As for `CCOc1ccc(C(=O)NCCc2cnc[nH]2)cc1OCC`, the “hERG current change (%, negative = inhibition) at 10uM” value was determined as 21.1%.

On to `O=C(Cn1ccc(NC(=O)OCc2ccccc2)nc1=O)NCCCc1ccccc1`, for which the “hERG current change (%, negative = inhibition) at 10uM” value is on record as 16.3%.

`COc1cccc(C(=O)Nc2nc(-c3ccc(S(=O)(=O)N4CCOCC4)cc3)cs2)c1`: the “hERG current change (%, negative = inhibition) at 10uM” value was 1%.

`COc1ccccc1CCNS(=O)(=O)c1ccc(C(=O)O)n1C`: the “hERG current change (%, negative = inhibition) at 10uM” value was found to be 25.9%.

In the case of `O=C1CN(C(=O)/C=C/c2ccc(Cl)cc2Cl)CCN1`, the “hERG current change (%, negative = inhibition) at 10uM” value is reported as -19.2%.

Consider `COc1ccccc1CC(=O)Nc1ccc(Cl)cc1C(=O)O`, for which the “hERG current change (%, negative = inhibition) at 10uM” value came out at 18.3%.

`O=C1NC(=Nc2cccc([N+](=O)[O-])c2)SC1(CO)CO`: the “hERG current change (%, negative = inhibition) at 10uM” value is given as 1.09%.

For `O=C1NC(=O)N(c2ccc3c(c2)OCO3)C(=O)/C1=C/c1cccs1`, the “hERG current change (%, negative = inhibition) at 10uM” value is listed as 18.7%.

In the case of `CCOc1ccccc1N(C)S(=O)(=O)c1ccc2c(c1)CCN2C(=O)CCC(=O)O`, the “hERG current change (%, negative = inhibition) at 10uM” value is 21.4%.

On to `CCOc1ccc(N2C(=O)C3C(c4ccc(OC)cc4OC)NC(CCSC)(C(=O)OC)C3C2=O)cc1` (stereo not drawn), for which the “hERG current change (%, negative = inhibition) at 10uM” value was -2.31%.

As for `Fc1ccc(Cn2cccc2C2=NC(c3ccccc3)CO2)cc1` (stereo not drawn), the “hERG current change (%, negative = inhibition) at 10uM” value is -0.841%.

As to `COCCN(CC(=O)NCc1ccc(F)cc1)C(=O)CCC(=O)Nc1ccccn1`, the “hERG current change (%, negative = inhibition) at 10uM” value was -1.92%.

`CCn1nc(C)c(/C=N/NC(=O)Cn2nc(C)cc2C)c1C`: the “hERG current change (%, negative = inhibition) at 10uM” value was 3.81%.

As to `CC(=O)c1ccc(NC(=S)NC(C)CCc2ccccc2)cc1` (stereo not drawn), the “hERG current change (%, negative = inhibition) at 10uM” value turned out to be 3.94%.

As for `O=C(Oc1c(CN2CCOCC2)cc(Cl)c2cccnc12)c1ccccc1Cl`, the “hERG current change (%, negative = inhibition) at 10uM” value is reported as -11.5%.

Take `Cc1ccc(S(=O)(=O)N2CCCCC2)cc1C(=O)NCc1ccncc1`: the “hERG current change (%, negative = inhibition) at 10uM” value is 2.22%.

`CCc1ccc(/C=N\n2cnnc2)cc1`: the “hERG current change (%, negative = inhibition) at 10uM” value is 4.73%.

With `O=C(c1cccc(-n2cnnn2)c1)N1CCOCC1`, the “hERG current change (%, negative = inhibition) at 10uM” value is recorded as -8.49%.

With `CCc1nccn1S(=O)(=O)c1cc(OC)c(Cl)cc1OC`, the “hERG current change (%, negative = inhibition) at 10uM” value was determined as 7.17%.

Turning to `COc1ccc(N(CC(=O)N2CCN(C)CC2)S(=O)(=O)c2ccccc2)cc1`, the “hERG current change (%, negative = inhibition) at 10uM” value is given as -23.2%.

In the case of `COc1ccc(-n2cc(CN(C)C3CCOCC3)c(-c3cccc(F)c3)n2)cc1`, the “hERG current change (%, negative = inhibition) at 10uM” value was -29.1%.

For `CC(=O)OCC(=O)[C@@]1(O)CC[C@H]2[C@@H]3CCC4=CC(=O)C=C[C@]4(C)[C@H]3C(=O)C[C@@]21C`, the “hERG current change (%, negative = inhibition) at 10uM” value is on record as 21.2%.

As to `CC(=O)Nc1ccc(Nc2nc(C)c([N+](=O)[O-])c(Nc3ccc(NC(C)=O)cc3)n2)cc1`, the “hERG current change (%, negative = inhibition) at 10uM” value stood at 30.3%.

Regarding `O=C(C1CCCN(S(=O)(=O)c2cccc3cccnc23)C1)N1CCN(c2ccc(F)cc2)CC1` (stereo not drawn), the “hERG current change (%, negative = inhibition) at 10uM” value is -67.5%.

Consider `COc1ccc(CN(CC2CCCO2)S(=O)(=O)c2ccc(C(=O)O)cc2)cc1OC` (stereo not drawn), for which the “hERG current change (%, negative = inhibition) at 10uM” value is on record as -8.45%.

For `C=CCn1c(-c2csc(-c3ccccc3)n2)n[nH]c1=S`, the “hERG current change (%, negative = inhibition) at 10uM” value is recorded as 22.7%.

`CN(C)/C(=N\S(=O)(=O)c1ccc(Cl)cc1)c1ccc(F)cc1`: the “hERG current change (%, negative = inhibition) at 10uM” value stood at 3.4%.

For the molecule `Cn1nccc1C(=O)NC1CCCc2c1cnn2-c1ccc(C(C)(C)C)cc1` (stereo not drawn), the “hERG current change (%, negative = inhibition) at 10uM” value amounted to 7.81%.

Regarding `COc1cc(S(=O)(=O)NCc2ccccc2)ccc1Br`, the “hERG current change (%, negative = inhibition) at 10uM” value is listed as 10.9%.

For `COc1ccc(C(=O)Nc2cc(C(=O)c3ccccc3)c(C)oc2=O)cc1`, the “hERG current change (%, negative = inhibition) at 10uM” value was 6.39%.

Consider `O=S(=O)(Nc1nc2ccccc2nc1-[n+]1cccc(N=C([O-])c2ccc(Cl)cc2)c1)c1ccccc1`, for which the “hERG current change (%, negative = inhibition) at 10uM” value is -1%.

Consider `CCOC(=O)COc1ccc2nsnc2c1Cl`, for which the “hERG current change (%, negative = inhibition) at 10uM” value was 9.35%.

In the case of `CN(C)c1cccc(NC2=CC(=[N+]3CCOCC3)CC(C)(C)C2)c1.[I-]`, the “hERG current change (%, negative = inhibition) at 10uM” value was -65.6%.

In the case of `CCCCn1c(N)c(N(CC(C)C)C(=O)CCS(=O)(=O)c2ccc(C)cc2)c(=O)[nH]c1=O`, the “hERG current change (%, negative = inhibition) at 10uM” value is reported as -2.73%.

Consider `O=C(C1CCN(S(=O)(=O)c2ccc3c(c2)OCCO3)CC1)N1CCc2ccccc21`, for which the “hERG current change (%, negative = inhibition) at 10uM” value came to 1.53%.

With `COC(=O)Cn1cnc2ccccc2c1=O`, the “hERG current change (%, negative = inhibition) at 10uM” value is reported as -14.6%.

As to `COc1ccc(-c2cc(Cl)cc3c(=O)c4ccccc4n(C)c23)cc1F`, the “hERG current change (%, negative = inhibition) at 10uM” value worked out at 20.9%.

As to `O=C(Nc1ccc([N+](=O)[O-])cn1)C1CC1`, the “hERG current change (%, negative = inhibition) at 10uM” value stood at 9.64%.

On to `CCOC(=O)c1c(NC(=O)COC(=O)c2ccc(NC(=O)CC#N)cc2)sc(C(=O)NC)c1C`, for which the “hERG current change (%, negative = inhibition) at 10uM” value was -10.1%.

Take `Cc1ccc(NC(=O)Nc2nnc(CSCCOc3ccc(Cl)cc3)s2)cc1`: the “hERG current change (%, negative = inhibition) at 10uM” value is given as 4.44%.

Turning to `O=C(c1ccc(F)cc1)C1CCN(C(=O)c2ccc(F)cc2)CC1`, the “hERG current change (%, negative = inhibition) at 10uM” value is -22.7%.

As to `Cc1n[nH]c(C)c1CCNCc1ccc(OCC(O)CN2CCCCC2)cc1` (stereo not drawn), the “hERG current change (%, negative = inhibition) at 10uM” value is recorded as -19.3%.

`CC(=O)c1c(C)[nH]c(C(=O)OCC(=O)c2ccc(C)s2)c1C`: the “hERG current change (%, negative = inhibition) at 10uM” value is -22.9%.

For the molecule `Cc1nc2nc(-c3ccc(Cl)cc3)cn2nc1C`, the “hERG current change (%, negative = inhibition) at 10uM” value was 7.78%.

`COc1ccccc1-c1nnc(SCC(=O)NCc2ccco2)n1N`: the “hERG current change (%, negative = inhibition) at 10uM” value is recorded as 17.2%.

As for `Cc1ccc(CNC(=O)CS(=O)Cc2nc(-c3ccccc3C)oc2C)cc1` (stereo not drawn), the “hERG current change (%, negative = inhibition) at 10uM” value was -35.2%.

Turning to `COc1ccc(/C=C2\N=C(c3ccccc3)N(c3ccc(C(=O)O)cc3)C2=O)cc1OC`, the “hERG current change (%, negative = inhibition) at 10uM” value was found to be 6.76%.

With `O=C(NC(=S)Nc1ccc(CN2CCOCC2)cc1)c1cccc([N+](=O)[O-])c1`, the “hERG current change (%, negative = inhibition) at 10uM” value is reported as 10.7%.

Source of the values: publication PMC4336329 (PLoS ONE, 2015).
